In PubChem BioAssay AID485344 (National Center for Advancing Translational Sciences (NCATS), 2010):
Screen size: about 340,000 compounds; about 6,900 (2%) were called active. Cut-off read from the data, not from the text of the source: active = inhibition above about 30%; inactive = below that, where a call was filed. The entries are a selection whose mix differs from that of the whole data set. The source gives no active or inactive call for entries shown without one.

Target: D(2) dopamine receptor (Homo sapiens) (UniProt P14416)
Sequence of UniProt P14416 (P14416 whole entry, looked up): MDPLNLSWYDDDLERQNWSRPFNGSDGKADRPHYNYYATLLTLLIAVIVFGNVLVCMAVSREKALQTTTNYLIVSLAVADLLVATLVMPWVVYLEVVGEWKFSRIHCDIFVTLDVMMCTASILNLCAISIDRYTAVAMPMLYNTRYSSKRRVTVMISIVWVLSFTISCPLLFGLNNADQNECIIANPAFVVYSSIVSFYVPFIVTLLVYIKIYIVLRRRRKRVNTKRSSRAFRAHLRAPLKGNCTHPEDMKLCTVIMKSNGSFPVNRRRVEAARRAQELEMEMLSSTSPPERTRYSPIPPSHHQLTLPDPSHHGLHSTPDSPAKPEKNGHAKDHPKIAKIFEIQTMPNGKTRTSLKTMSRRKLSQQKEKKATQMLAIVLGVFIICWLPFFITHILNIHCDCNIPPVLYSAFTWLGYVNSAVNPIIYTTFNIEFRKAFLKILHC
Test: HTS Assay for Allosteric Antagonists of the Human D2 Dopamine Receptor: Primary Screen for Antagonists; note: 0% is about no effect
Conditions: HEK293 TREx D2 cells, calcium flux, dopamine EC80; at 10 µM; stronger effect = higher value
Outline: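 In this primary screen, negative modulation is detected by tracking calcium flux after an EC80 dopamine challenge in inducible HEK293 T-REx D2 cells preexposed to test compound for 180 s.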

In order of rising inhibition:
1. O=C(NCc1ccc2c(c1)CCN2C(=O)c1ccc(F)cc1)c1ccc(Br)o1  -22.7%
2. Cc1cccc(OCC(=O)Nc2ccc(OCc3cc(=O)n4cc(C)ccc4n3)cc2)c1  -21.3%
3. O=C(Nc1ccc(S(=O)(=O)Nc2ccccc2)cc1)N1CCCC1  -17.6%
4. COc1cccc(-c2nc(SCC(=O)Nc3ccc4c(c3)OCO4)c(-c3ccccc3)[nH]2)c1  -16.2%
5. Cc1c(C2=CCN(S(=O)(=O)c3ccc(Cl)cc3)CC2)c2ccccc2n1CC(=O)N1CCCC1  -10.8%
6. CC(C)OCCCn1c(SCc2cccc(Br)c2)nc2c(sc3ccccc32)c1=O  -8.03%
7. CCOc1ccc(CCNC(=O)CCCc2nnc3n(CC(C)C)c(=O)c4sccc4n23)cc1  -7.73%
8. CC(=O)N1c2ccc(S(=O)(=O)NCC3CCC(C(=O)NCCC(C)C)CC3)cc2CC1C (stereo unspecified)  -7.72%
9. Cc1ccccc1CSc1cn(CCNC(=O)c2cccs2)c2ccccc12  -6.84%
10. CCc1nn(CC(=O)NCCc2ccc(OC)cc2OC)c(=O)c2cc3sccc3n12  -5.64%
11. Cc1ccc(S(=O)(=O)Nc2cc3c(cc2C)n(C)c(=O)c(=O)n3C)cc1  -5.51%
12. CCC(O)c1nc2ccccc2n1Cc1cccc(Cl)c1 (stereo unspecified)  -4.17%
13. COC(=O)c1ccc(C2Nc3c(C)cc(C)cc3C3C=CCC32)cc1 (stereo unspecified)  -2.44%
14. Cc1c(Cl)cccc1NC(=O)C(C)n1nc(C)c2c(C)n(-c3ccccc3)nc2c1=O (stereo unspecified)  -1.59%
15. Cc1nc2c(cnn2-c2ccccc2Cl)c(=O)n1-c1ccc(C(C)C)cc1  -1.08%
16. CCOC(=O)c1cc(S(=O)(=O)Nc2ccc(OC)c(Cl)c2)[nH]n1  -0.96%
17. CCCc1noc(-c2ccc(N3CCCCC3)c([N+](=O)[O-])c2)n1  -0.742%
18. COc1ccc2c(Sc3ccccc3)c(C(=O)NCc3cccc(OC)c3OC)[nH]c2c1  -0.54%
19. COc1ccc(-n2nc(C(=O)N3CCC(C)CC3)c3c4ccccc4n(C)c3c2=O)cc1Cl  -0.386%
20. Cc1ccc(OC(=O)c2cc(-c3ccccc3)nc3ccc(C)cc23)cc1  0.136%
21. COc1ccccc1Oc1nc2c(c(=O)n(C)c(=O)n2C)n1Cc1cccc(Br)c1  1.35%
22. COc1cc(OC)cc(C(=O)Nc2cc3nn(-c4ccccc4)nc3cc2Cl)c1  1.88%
23. Cc1cc2c(n1-c1ccc(C(=O)NCCc3ccc(Cl)cc3)cc1)CCC(C)C2 (stereo unspecified)  1.91%
24. Cc1ccccc1NC(=O)CSc1nc(-c2ccc(F)cc2)c2cccc(C)c2n1  1.99%
25. COc1cc(CNC(=O)c2cc(-c3ccccc3)n[nH]2)cc(OC)c1OC  2.07%
26. Cc1ccc(-c2onc(C)c2C)cc1S(=O)(=O)N1CCCCC1  2.08%
27. CCOC(=O)c1sc2ccccc2c1S(=O)(=O)Nc1c(C)cccc1C  2.95%
28. CCc1ccc2oc(C(=O)Nc3nc(-c4ccc(F)cc4)ns3)c(C)c2c1  3.53%
29. COc1cccc(CNC(=O)Cn2cc3c(n2)-c2c(oc(C(=O)N4CCCC4)c2C)CC3)c1OC  4.1%
30. CCOC(=O)c1cccc(NC(=O)CC2C(=O)N(c3ccccc3)C(=O)N2Cc2ccco2)c1 (stereo unspecified)  4.48%
31. CNC(=O)c1ccc(-c2nc(CN3CCc4ccccc43)c(C)o2)cc1  4.73%
32. CCOc1ccc(-c2oc3ccccc3c(=O)c2O)cc1OCC  4.87%
33. Cn1c(=O)c2c(nc(SCC(=O)Nc3ccc(OC(F)(F)F)cc3)n2Cc2cccc(C(F)(F)F)c2)n(C)c1=O  5.3%
34. CCOC(=O)Cc1ccc(NC(=O)n2ncc3c(C)cccc32)cc1  5.55%
35. CCc1ccc(S(=O)(=O)c2nnn3c2nc(NCCc2ccccc2)c2sccc23)cc1  5.93%
36. COc1ccc(CCn2cc3c(c2-c2ccccc2Br)c(=O)n(C)c(=O)n3C)cc1OC  6.2%
37. CCOC(=O)c1c(N)n(-c2ccc(C)c(C)c2)c2nc3ccccc3nc12  6.69%
38. COc1ccccc1NC(=O)C1=C(C)Nc2c(C(=O)Nc3ccc(F)cc3)cnn2C1c1ccc(Cl)cc1 (stereo unspecified)  7.65%
39. COCCNC(=O)c1ccc2c(c1)N(Cc1cccc(Cl)c1)C(=O)c1ccccc1S2(=O)=O  11%
40. COc1ccccc1NC(=O)N1CC(=O)Nc2sc3c(c2C1c1ccccc1)CCCC3 (stereo unspecified)  11.2%
41. CC(=O)Nc1ccc(Nc2nc3ccc(Cl)cc3n3cnnc23)cc1  11.5%
42. COc1cc(NC(=O)Cn2ncc3c(=O)oc4ccccc4c32)cc(OC)c1OC  11.9%
43. CN(C)S(=O)(=O)N(CC(=O)NCCSCc1ccccc1Cl)c1ccccc1  12%
44. CCOC(=O)c1c(C)oc2nc(C)nc(Nc3cccc(OC)c3)c12  12.6%
45. CN1C(=O)Cc2cc(S(=O)(=O)CCC(=O)Nc3cccc(C(F)(F)F)c3)ccc21  12.8%
46. COc1ccc(-c2cc(C(F)(F)F)n3nc(C(=O)OC(C)C)cc3n2)cc1  14.1%
47. O=C(Cn1c(=O)n(-c2ccc(F)cc2)c(=O)c2sc3ccccc3c21)N1CCCC1  14.6%
48. COCCCN1C(=O)N(c2ccccc2)C(=O)C1CC(=O)Nc1ccc(F)cc1 (stereo unspecified)  15%
49. CC(=O)Nc1ccc(S(=O)(=O)Nc2cccc(-c3ccc(N4CCC(C)CC4)nn3)c2)cc1  15.8%
50. CCOC(=O)C1(C)C=C(Nc2ccc(C(N)=O)cc2)C(=O)N1c1ccccc1 (stereo unspecified)  16.5%
51. CCCS(=O)(=O)c1ncc(Cl)c(C(=O)N(Cc2ccccc2)Cc2ccco2)n1  20.9%
52. COc1ccc(-c2noc(-c3ccc(NCc4ccc(C)cc4)c([N+](=O)[O-])c3)n2)cc1OC  21%

`CN1CCN(c2nc(-c3cccs3)cc(C(F)(F)F)n2)CC1` was tested, and the inhibition was active: 31.8%.
In the case of `CN1C(=O)/C(=C\c2ccc(OC(=O)c3ccco3)cc2)SC1=S`, the inhibition was active: 48.1%.
`COc1ccccc1Nc1nc(N)nc(CN2CCN(c3ccccc3)CC2)n1` was tested, and the inhibition was active: 43.6%.
In the case of `CC(C)(C)C(=O)NC1CCN(C(=O)N2CCCC2)CC1`, the inhibition was active: 32.4%.
For `Cc1ccc(CN2CCN(/N=C/c3cccs3)CC2)cc1`, the inhibition was active: 33.8%.
For `Cc1ccsc1/C=N/NC(=O)c1ccc2ccccc2c1`, the inhibition was active: 41.4%.
`CC1(C)Nc2ccc(O)cc2-c2c1ssc2=S` was tested, and the inhibition was active: 35.8%.
`Nc1nonc1-n1nnc(C(=O)N/N=C/c2ccc(Br)cc2)c1-c1ccc2c(c1)OCO2` was tested, and the inhibition was active: 41.3%.
`COc1ccc(OC)c(NC(=O)c2cc(-c3ccc(C)cc3O)n[nH]2)c1` was tested, and the inhibition was active: 32.2%.
